Test results published in US20150079000A1, “Labelled Quinoxaline Derivatives as Multimodal Radiopharmaceuticals and Their Precursors” (INSTITUT NATIONAL DE LA SANTET DE LA RECHERCHE MEDICALE, priority 2012, published 2015).
This continues a long series; more values of the same kind are listed elsewhere.

Tested on: B16 murine melanoma tumours
Assay: Ex vivo biodistribution study for compound [125I](1)
Format: in vivo, C57BL/6J mice
Method: Twenty four B16BL6 primary melanoma bearing mice were intravenously injected with 2.2 MBq of [^1251]1 and sacrificed 1 h, 3 h, 6 h, 24 h, 72 h and 10 days after tracer injection (n=4/time point). Tumours and major organs and tissues were promptly excised, harvested, weighted and their radioactivity counted using a calibrated γ-counter with a […] energy window. After radioactive decay correction, results were expressed as percentage of injected dose per gram of tissue (% ID/g).

For `CCN(CCNC(=O)c1cnc2cc([125I])ccc2n1)CCOCCOCCOCCF` [[^125I](1)], which “% ID/g Eyes” value (1 h p.i.) is on record?
Its value is 15.01 ± 4.84 % ID/g.

What about the “% ID/g Tumour” value (1 h p.i.) of the same compound?
The value was 11.99 ± 3.52 % ID/g.

What about the “% ID/g Eyes” value (3 h p.i.) of the same compound?
Its value is 15.48 ± 2.57 % ID/g.

What about the “% ID/g Tumour” value (3 h p.i.) of the same compound?
Its value is 17.69 ± 1.10 % ID/g.

What about the “% ID/g Eyes” value (6 h p.i.) of the same compound?
The value was 17.40 ± 2.21 % ID/g.

And the “% ID/g Tumour” value (6 h p.i.)?
Its value is 12.04 ± 4.39 % ID/g.

And the “% ID/g Eyes” value (24 h p.i.)?
The value was 20.30 ± 6.08 % ID/g.

What about the “% ID/g Tumour” value (24 h p.i.) of the same compound?
Its value is 10.47 ± 3.22 % ID/g.

What about the “% ID/g Blood” value (72 h p.i.) of the same compound?
The value was 0.03 ± 0.01 % ID/g.

And the “% ID/g Eyes” value (72 h p.i.)?
The value was 14.87 ± 1.18 % ID/g.

And the “% ID/g Tumour” value (72 h p.i.)?
The value was 8.74 ± 0.38 % ID/g.

And the “% ID/g Blood” value (10 d p.i.)?
The value was 0.00 ± 0.00 % ID/g.

What about the “% ID/g Eyes” value (10 d p.i.) of the same compound?
The value was 9.97 ± 2.24 % ID/g.

What about the “% ID/g Tumour” value (10 d p.i.) of the same compound?
Its value is 1.20 ± 0.54 % ID/g.
